According to article PMC12820563, “FoxP3 forms a head-to-head dimer in vivo and stabilizes its multimerization on adjacent microsatellites”:
The other results are listed elsewhere or left out.

Target: T1, MBP-FoxP1dN (Mus musculus, UniProt P58462 326-579)
T1 sequence: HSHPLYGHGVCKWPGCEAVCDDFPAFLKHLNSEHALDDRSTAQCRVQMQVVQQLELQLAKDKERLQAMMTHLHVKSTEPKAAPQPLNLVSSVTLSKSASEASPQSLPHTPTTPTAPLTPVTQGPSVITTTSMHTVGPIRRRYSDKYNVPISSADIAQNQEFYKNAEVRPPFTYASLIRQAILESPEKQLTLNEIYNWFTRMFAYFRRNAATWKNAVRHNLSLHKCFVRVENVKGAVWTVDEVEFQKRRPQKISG
Experiment: PD-seq (MBP pull-down with sequencing); 20 mM Tris-HCl pH 7.5, 100 mM NaCl, 1.5 mM MgCl2, 0.4 uM protein, 0.1 uM dsDNA library, 30 min, room temperature, amylose pull-down; high values mean tight binding
Conditions: protein: recombinant; tags: His6-MBP; chain copies: 2; dsDNA, one strand shown
Summary of the method: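 Binding is given as reads-per-million enrichment, pull-down over input, with replicates pooled. The bait was an N-terminus-lacking mouse FoxP3 or FoxP1 fragment with a His6-MBP tag, expressed in E. coli and used at 0.4 µM with 0.1 µM Klenow-filled degenerate double-stranded DNA library for 30 min at room temperature in Tris pH 7.5 buffer with NaCl and MgCl2. Amylose resin pull-down with three washes was followed by proteinase K release, PCR barcoding and Illumina sequencing.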

Sequence | binding signal
GATGATTGTTCTCCCAGCTGATGAATTTAGAACTTCGAGTAAACAAATTTTCCTAATCTTTCTGTTCAAGCGCCATCTAC | 1.03 RPM ratio (pull-down/input)
GATGATTGTTCTCCCAGCTGATGAATTAACCCCATCGAGTAAACAAATTTTCCTAATCTTTCTGTTCAAGCGCCATCTAC | 0.894 RPM ratio (pull-down/input)
GATGATTGTTCTCCCAGCTGATGAATTGTCTTTCTCGAGTAAACAAATTTTCCTAATCTTTCTGTTCAAGCGCCATCTAC | 1.14 RPM ratio (pull-down/input)
GATGATTGTTCTCCCAGCTGATGAATTAAACGAATCGAGTAAACAAATTTTCCTAATCTTTCTGTTCAAGCGCCATCTAC | 0.927 RPM ratio (pull-down/input)
GATGATTGTTCTCCCAGCTGATGAATTCCTCTATTCGAGTAAACAAATTTTCCTAATCTTTCTGTTCAAGCGCCATCTAC | 0.833 RPM ratio (pull-down/input)
GATGATTGTTCTCCCAGCTGATGAATTATGATGCTCGAGTAAACAAATTTTCCTAATCTTTCTGTTCAAGCGCCATCTAC | 1.64 RPM ratio (pull-down/input)
GATGATTGTTCTCCCAGCTGATGAATTTGGGGATTCGAGTAAACAAATTTTCCTAATCTTTCTGTTCAAGCGCCATCTAC | 0.891 RPM ratio (pull-down/input)
GATGATTGTTCTCCCAGCTGATGAATTCAGGCTGTCGAGTAAACAAATTTTCCTAATCTTTCTGTTCAAGCGCCATCTAC | 0.854 RPM ratio (pull-down/input)
GATGATTGTTCTCCCAGCTGATGAATTGCTGCCCTCGAGTAAACAAATTTTCCTAATCTTTCTGTTCAAGCGCCATCTAC | 0.93 RPM ratio (pull-down/input)
GATGATTGTTCTCCCAGCTGATGAATTGATTAGCTCGAGTAAACAAATTTTCCTAATCTTTCTGTTCAAGCGCCATCTAC | 1 RPM ratio (pull-down/input)
GATGATTGTTCTCCCAGCTGATGAATTTTCTCTTTCGAGTAAACAAATTTTCCTAATCTTTCTGTTCAAGCGCCATCTAC | 0.962 RPM ratio (pull-down/input)
GATGATTGTTCTCCCAGCTGATGAATTATTGTCCTCGAGTAAACAAATTTTCCTAATCTTTCTGTTCAAGCGCCATCTAC | 1.48 RPM ratio (pull-down/input)
GATGATTGTTCTCCCAGCTGATGAATTGATCATATCGAGTAAACAAATTTTCCTAATCTTTCTGTTCAAGCGCCATCTAC | 1.18 RPM ratio (pull-down/input)
GATGATTGTTCTCCCAGCTGATGAATTGCGAAGGTCGAGTAAACAAATTTTCCTAATCTTTCTGTTCAAGCGCCATCTAC | 0.937 RPM ratio (pull-down/input)
GATGATTGTTCTCCCAGCTGATGAATTGTCCACATCGAGTAAACAAATTTTCCTAATCTTTCTGTTCAAGCGCCATCTAC | 1.33 RPM ratio (pull-down/input)
GATGATTGTTCTCCCAGCTGATGAATTCTTCACGTCGAGTAAACAAATTTTCCTAATCTTTCTGTTCAAGCGCCATCTAC | 0.901 RPM ratio (pull-down/input)
GATGATTGTTCTCCCAGCTGATGAATTAGACCAGTCGAGTAAACAAATTTTCCTAATCTTTCTGTTCAAGCGCCATCTAC | 0.827 RPM ratio (pull-down/input)
GATGATTGTTCTCCCAGCTGATGAATTTCAGCCGTCGAGTAAACAAATTTTCCTAATCTTTCTGTTCAAGCGCCATCTAC | 0.815 RPM ratio (pull-down/input)
